In article PMC4336329 (PLoS ONE, 2015):
Hit rate of the full screen: of about 310,000 compounds, about 14,000 (4.5%) showed an effect of 50% or more. The effect is printed as a negative number. Some of the results follow.

These compounds were tested against human ether-à-go-go-related gene (hERG) potassium channel (human, UniProt Q12809) (assay: primary screen, population patch clamp on CHO cells stably expressing hERG).
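Note: peak tail current of the secondary pulse compared with the same well before compound.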

Chain of human ether-à-go-go-related gene (hERG) potassium channel (Q12809 whole entry, looked up): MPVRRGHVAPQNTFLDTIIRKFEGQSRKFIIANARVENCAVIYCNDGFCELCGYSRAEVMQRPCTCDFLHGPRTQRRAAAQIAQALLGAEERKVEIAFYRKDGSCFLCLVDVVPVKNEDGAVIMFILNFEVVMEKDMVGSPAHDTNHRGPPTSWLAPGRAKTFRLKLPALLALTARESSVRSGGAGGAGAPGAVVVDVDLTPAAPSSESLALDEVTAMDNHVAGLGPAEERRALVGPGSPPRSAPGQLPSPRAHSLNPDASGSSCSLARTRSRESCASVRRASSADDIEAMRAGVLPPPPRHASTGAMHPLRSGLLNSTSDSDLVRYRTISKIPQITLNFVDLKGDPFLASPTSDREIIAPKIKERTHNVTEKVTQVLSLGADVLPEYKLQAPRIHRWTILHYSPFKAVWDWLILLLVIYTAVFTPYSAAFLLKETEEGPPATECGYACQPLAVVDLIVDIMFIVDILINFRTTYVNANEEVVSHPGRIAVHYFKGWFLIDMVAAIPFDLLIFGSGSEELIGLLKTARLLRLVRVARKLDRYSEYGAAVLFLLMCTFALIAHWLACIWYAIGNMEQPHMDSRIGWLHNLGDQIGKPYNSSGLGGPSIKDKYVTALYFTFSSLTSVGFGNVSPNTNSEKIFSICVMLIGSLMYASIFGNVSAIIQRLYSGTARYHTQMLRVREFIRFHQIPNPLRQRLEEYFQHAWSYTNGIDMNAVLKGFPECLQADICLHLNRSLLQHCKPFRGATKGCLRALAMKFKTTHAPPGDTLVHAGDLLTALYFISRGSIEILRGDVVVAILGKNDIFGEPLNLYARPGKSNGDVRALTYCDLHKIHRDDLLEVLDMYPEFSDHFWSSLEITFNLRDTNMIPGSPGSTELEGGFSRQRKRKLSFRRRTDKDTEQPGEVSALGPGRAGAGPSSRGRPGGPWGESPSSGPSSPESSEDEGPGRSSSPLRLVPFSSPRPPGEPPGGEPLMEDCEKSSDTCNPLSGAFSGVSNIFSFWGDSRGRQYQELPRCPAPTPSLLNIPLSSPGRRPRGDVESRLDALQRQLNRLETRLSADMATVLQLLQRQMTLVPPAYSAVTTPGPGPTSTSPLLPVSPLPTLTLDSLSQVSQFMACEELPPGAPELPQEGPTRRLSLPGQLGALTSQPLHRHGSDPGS

Point of comparison: `CSc1c(CC(=O)Nc2ccccc2)n(C)c2ccccc12`, “hERG current change (%, negative = inhibition) at 10uM” value 22.2%. Against it:
- COC(=O)c1cc(=O)n(-c2ccc(C(F)(F)F)cc2)[nH]1 — lower, 13.9%
- O=[N+]([O-])c1cc(S(=O)(=O)N2CCCC2)ccc1O — lower, -0.443%
- Cc1nnc(NCCc2ccccc2)n(N)c1=O — lower, 7.99%
- N/C(=N\OC(=O)CCCc1ccccc1)c1cccnc1 — lower, -25.2%
- Cc1c(NC(=O)CN2C(=O)c3ccccc3C2=O)c(=O)n(-c2ccccc2)n1C — lower, 6.03%
- COc1ccccc1OC(=O)Nc1ccc(Cl)cc1 — lower, 12.1%
- Fc1ccc(C(c2nnnn2CCc2ccccc2)N2CCCc3ccccc32)cc1 (stereo not shown) — lower, 9.57%
- COc1ccc(/C=N/NC(=O)C(=O)N2CCCCCC2)cc1[N+](=O)[O-] — lower, -10.4%
- CC(C)CC(=O)N1CCC(O)(CS(=O)(=O)Cc2ccccc2)CC1 — lower, -1.93%
- COc1ccc(CCNC(=O)C2CCCN2S(=O)(=O)c2cccc3nsnc23)cc1OC (stereo not shown) — lower, 4.29%
- O=C(N/C(=C\c1ccc([N+](=O)[O-])cc1)C(=O)N1CCOCC1)c1cccc(Br)c1 — lower, -74.2%
- CC(C)CN(C(=O)COC(=O)Cc1ccc(Cl)cc1)c1c(N)n(Cc2ccccc2)c(=O)[nH]c1=O — lower, 5.02%
- COc1ccc(CC(C(=O)Nc2cccc(F)c2)c2nn[nH]n2)c(OC)c1 (stereo not shown) — lower, 6.23%
- Cc1c(NC(=O)/C(C#N)=C/c2cccs2)c(=O)n(-c2ccccc2)n1C — lower, 1.26%
- Cc1nc2cc(S(=O)(=O)N3CCC(C(=O)O)CC3)ccc2n1C1CCCC1 — lower, 15.7%
- CCOC(=O)c1c(-c2ccc(OC)cc2)oc2ccc(O)cc12 — lower, 13.1%
- Cc1nn(Cc2ccc(F)cc2Cl)c(C)c1[N+](=O)[O-] — lower, -1.01%
- CCOc1ccc(C2CC(=O)NC(SCC(=O)OC)=C2C#N)cc1 (stereo not shown) — lower, -5.84%
- OCC(O)CNC(=S)NC1CCCCC1 (stereo not shown) — lower, 16.3%
- C=CCn1c(O)c(/C=C2\C=Nc3ccccc32)c(=O)[nH]c1=O — lower, 15.4%
- O=c1c2ccccc2nnn1CSc1nnnn1-c1ccc(O)cc1 — lower, -13.1%
- CC1SCC(=O)N(CC(=O)NC2CCCCC2)C1=O (stereo not shown) — higher, 32%
- CC1CCN(S(=O)(=O)c2ccc3c(ccn3CCC(=O)NC(C)C)c2)CC1 — lower, -12.8%
- O=C(NCc1cccnc1)c1ccc(Cl)cc1[N+](=O)[O-] — lower, 5.82%
- CCOC(=O)c1c(N)nn(C(=O)c2ccccc2)c1-c1ccccc1 — lower, 14.3%
- O=c1[nH]c2cc3c(cc2cc1C(c1nnnn1Cc1ccccc1)N1CCCc2ccccc21)OCO3 (stereo not shown) — lower, 17%
- CCCn1c(=O)c2c(nc3n2CCCN3CCc2ccccc2)n(C)c1=O — lower, -65.4%
- COCc1cc(=O)n2[nH]c(-c3ccsc3-n3c(C)ccc3C)cc2n1 — lower, -14.2%
- Cc1ccnc(NS(=O)(=O)c2ccc(NC(=O)c3ccc(Cl)cc3[N+](=O)[O-])cc2)n1 — lower, 5.91%
- O=C(O)c1cc(S(=O)(=O)N2CCN(C(=O)c3ccco3)CC2)c(Cl)cc1Cl — lower, 15%
- O=C(N/N=C/c1coc2ccccc2c1=O)c1cn(-c2ccccc2)nc1-c1ccc(F)cc1 — lower, 16.1%
- CCn1cnc2cc([N+](=O)[O-])ccc21 — lower, 1.19%
- CC(Oc1cc2oc(=O)c3c(c2cc1Cl)CCC3)C(=O)NCc1ccncc1 (stereo not shown) — lower, -5.19%
- C=C(C)C(=O)Nc1cccc(C2=NOC3(C2)C[C@H](C(N)=O)N(C(=O)c2ccccc2)C3)c1 (stereo partly shown) — lower, 5.7%
- Cc1ccc(C(=O)NCC(=O)OCc2cccc(Br)c2)cc1 — lower, -37.9%
- COc1ccc(-n2cnc3cc(NCc4ccco4)ccc32)cc1 — lower, -67.3%
- Cc1ccc(N(CC(=O)NCc2ccco2)C(=O)CCC(=O)Nc2nccs2)c(C)c1 — lower, -22.5%
- CC(C)CNC(=O)N[C@@H](CC(C)C)C(=O)O — lower, 9.58%
- CCOc1cc(C(=O)N2CCC(CC3CC(c4cccc(Br)c4)=NO3)(C(=O)NCC3CCCCC3)CC2)cc(OCC)c1OCC (stereo not shown) — lower, 4.14%
- CC(=O)Nc1ccc(OCCOc2ccc(/C=C3\C(=N)N4N=C(C)SC4=NC3=O)cc2)cc1 — lower, 19%
- O=C(O)CCc1nn2c3ccccc3nc2n(CCN2CCCCC2)c1=O — lower, 12.3%
- NC(=O)C1(c2ccccc2)CCCN1C(=O)c1ccc(Br)cc1 (stereo not shown) — lower, -9.26%
- Cc1ccc(S(=O)(=O)N2CC3(C)CN(S(=O)(=O)c4ccc(C)cc4)CC(C)(C2)C3)cc1 — lower, 3.41%
- COc1cccc(NC(=O)C(Cc2ccccc2)n2cccc2)c1 (stereo not shown) — lower, -17%
- CCCn1nnnc1NCc1cccc(OC)c1 — lower, 18.6%
- COc1ccc(NC(=O)CC(c2ccccc2)c2ccco2)cc1 (stereo not shown) — lower, 8.54%
- CSc1ccc(CN(C)C(=O)CN2C(=O)NC3(CCCC3)C2=O)cc1 — lower, 2.19%
- O=C(Nc1ccc(Nc2ccccc2)cc1)c1ccc(Br)o1 — lower, -8.52%
- CSCCC(NC(=O)c1ccc(C)o1)C(=O)O (stereo not shown) — lower, 10.2%
- COc1ccc(N(C)S(=O)(=O)c2cccc(C(=O)NCc3ccc4c(c3)OCO4)c2)cc1 — lower, 2.95%
- O=C(CNS(=O)(=O)c1ccccc1)OCC(=O)c1cccc([N+](=O)[O-])c1 — lower, -6.17%
- O=C(CN1CCC(n2nnc3cc(F)ccc32)CC1)Nc1ccccc1N1CCOCC1 — lower, -66.6%
- Cc1ccc(C2=CSC3=NS(=O)(=O)CCN23)cc1C — lower, -4.1%
- COc1ccc(C(=O)NCC(=O)O)cc1 — lower, 5.12%
- CCOC(=O)N1CCN(c2cc(=O)n(-c3ccccc3C)c(=O)[nH]2)CC1 — lower, 5.23%
- O=C(N/N=C1\CCCc2c1[nH]c1ccc(Cl)cc21)c1ccncc1 — lower, -8.42%
- O=c1[nH]c(CSc2nnc(-c3ccccc3)n2C2CCCCC2)nc2ccccc12 — lower, -6.75%
- O=C(Nc1ccccc1-c1ccccc1)NC1CC2CCCC(C1)N2Cc1ccc(F)cc1 (stereo not shown) — lower, -66.4%
- Cc1ccc(OCc2ccc([N+](=O)[O-])cc2)c([N+](=O)[O-])n1 — lower, -29.2%
- CC1=CC(C)(C)N2C(=O)C(=Nc3ccc(O)cc3)c3cccc1c32 — lower, -5.39%
- C=C[C@@H]1C2=CCOC(=O)C2=CO[C@H]1O[C@@H]1O[C@H](CO)[C@@H](O)[C@H](O)[C@H]1O — lower, 20.1%
- CC1(C)Cc2c(C#N)c(N3CCN(C(=O)c4ccccc4)CC3)nc(-c3ccco3)c2CS1 — lower, 4.82%
- COc1ccc(CCN2C(=O)CC(NNC(=O)c3ccccc3Br)C2=O)cc1OC (stereo not shown) — higher, 22.8%
- CCCC(=O)N1CCN(c2ccc(NC(=O)c3ccco3)cc2)CC1 — lower, 4.23%
- CN(C)C1=NC[C@H](Cc2ccccc2)N1CCc1ccc(F)cc1 — lower, -60.6%
- Cc1ccc(NC(=O)CSc2nnc(/N=C/N(C)C)s2)cc1 — lower, -7.65%
- CC(=O)Nc1ccc(C(=O)Nc2nc(-c3ccccn3)cs2)cc1 — lower, 21.3%
- CCn1c(=O)c2sccc2n(Cc2cccc(C)c2)c1=O — lower, -2.29%
- CC(Sc1nc(N)cc(N)n1)C(=O)NCCC1=CCCCC1 (stereo not shown) — lower, 5.6%
- COc1ccc(NC(=O)Nc2cccnc2)c(OC)c1 — higher, 30.3%
- CCCCOC(=O)c1ccc(NC(=O)/C=C/c2cccs2)cc1 — lower, -17.1%
- CCN(CC)S(=O)(=O)c1ccc(N2CCCC2)c(NC(=O)C2=COCCO2)c1 — lower, -40%
- COc1ccc(C(=O)N(Cc2sccc2C)C2CCS(=O)(=O)C2)cc1 (stereo not shown) — lower, -11.6%
- C/C(=N\NC(=O)Cc1c(C)[nH][nH]c1=O)c1cccc(Br)c1 — lower, 16.3%
- COc1ccc(CN2CCCN(C)CC2)c(OC)c1C — lower, 11.1%
- COc1ccc(S(=O)(=O)Nc2ccccn2)c(C)c1C — lower, 15.1%
- COc1ccc(N2CCN(C(CNC(=O)c3cccs3)c3ccco3)CC2)cc1 (stereo not shown) — lower, 18.5%
- O=C(Cn1cnc2ccccc2c1=O)N1CCN(c2ccccc2)CC1 — lower, -25.5%
- C/C(=N\NC(=O)CC#N)C1COc2ccccc2O1 (stereo not shown) — lower, 13%
- CCC(C)(C)n1nnnc1C(c1ccc(C)cc1)N1CCSCC1 (stereo not shown) — lower, -55.1%
- Clc1ccc(N=C2SCCS2)cc1 — lower, 5.13%
- NC(=O)N[C@@H](Cc1c[nH]c2ccccc12)C(=O)OCC(=O)N1CCCCC1 — higher, 32%
- Cc1ccc(C(=O)NNC(=S)NC(=O)c2ccccc2)cc1 — lower, 14.2%
- O=C1c2ccccc2C(=O)N1c1ccc(Cl)cc1 — lower, 18.9%
- COC(=O)c1ccccc1NC(=O)CCCn1nc([N+](=O)[O-])c(Br)c1C — lower, -19.6%
- O=C(Nc1cccc(C(F)(F)F)c1)c1cccc(NS(=O)(=O)c2ccc(O)c(C(=O)O)c2)c1 — higher, 36.2%
- CCOC(=O)N1CCN(C(=O)c2c(-c3ccccc3)noc2C)CC1 — lower, 1.15%
